The other results are listed elsewhere or left out. Rule as the data show it: active = 3.2 or more and inactive = the rest. Most of these values are background signal.
Tests used:
Assay in all cases: enrichment score (SH2-bound / input frequency) (ratio); bacterial display of known human phosphotyrosine sites (pTyr-Var adds point mutants) read by sequencing; higher = stronger binding; tyrosines were phosphorylated by kinases first
Details in all cases: peptide library: pTyr-Var
SHP2 C-SH2 domain E139D = molecular target: SHP2 C-SH2 domain E139D
[1] = molecular target: SHP2 C-SH2 domain wild-type
SHP2 N-SH2 domain L43F = molecular target: SHP2 N-SH2 domain L43F
SHP2 N-SH2 domain T42A = molecular target: SHP2 N-SH2 domain T42A
SHP2 N-SH2 domain T52S = molecular target: SHP2 N-SH2 domain T52S
[2] = molecular target: SHP2 N-SH2 domain wild-type

Measured: enrichment score
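Also: displayed peptides selected on beads carrying the immobilized SH2 domain, with library peptides lacking any tyrosine serving as negative controls.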

B1: CASP5_Y103_T106A_YF (peptide)
chain: EEKKKYFDAKI
inactive: SHP2 C-SH2 domain E139D 0.778 | [1] 0.8 | SHP2 N-SH2 domain L43F 0.728 | SHP2 N-SH2 domain T42A 1.08 | SHP2 N-SH2 domain T52S 0.637 | [2] 1.3

B2: CASP5_Y104 (peptide)
chain: EKKKYYDTKIE
inactive: SHP2 C-SH2 domain E139D 0.693 | [1] 0.78 | SHP2 N-SH2 domain L43F 0.632 | SHP2 N-SH2 domain T42A 0.624 | SHP2 N-SH2 domain T52S 0.743 | [2] 0.928

B3: CASP5_Y104_T106A (peptide)
chain: EKKKYYDAKIE
inactive: SHP2 C-SH2 domain E139D 0.594 | [1] 0.703 | SHP2 N-SH2 domain L43F 0.805 | SHP2 N-SH2 domain T42A 0.824 | SHP2 N-SH2 domain T52S 0.844 | [2] 1.05

B4: CASP5_Y104_YF (peptide)
chain: EKKKFYDTKIE
inactive: SHP2 C-SH2 domain E139D 0.828 | [1] 0.72 | SHP2 N-SH2 domain L43F 0.827 | SHP2 N-SH2 domain T42A 0.82 | SHP2 N-SH2 domain T52S 0.838 | [2] 0.886

B5: CASP5_Y74 (peptide)
chain: VKMLEYLGKDV
inactive: SHP2 C-SH2 domain E139D 1.14 | [1] 0.991 | SHP2 N-SH2 domain L43F 1.33 | SHP2 N-SH2 domain T42A 1.38 | SHP2 N-SH2 domain T52S 1.41 | [2] 1.16

B6: CASQ2_Y178_YF (peptide)
chain: SEDSEYFKAFE
inactive: SHP2 C-SH2 domain E139D 0.551 | [1] 0.658 | SHP2 N-SH2 domain L43F 0.611 | SHP2 N-SH2 domain T42A 0.522 | SHP2 N-SH2 domain T52S 0.662 | [2] 0.919

B7: CASQ2_Y179_YF (peptide)
chain: EDSEFYKAFEE
inactive: SHP2 C-SH2 domain E139D 0.677 | [1] 0.639 | SHP2 N-SH2 domain L43F 0.614 | SHP2 N-SH2 domain T42A 0.525 | SHP2 N-SH2 domain T52S 0.596 | [2] 0.581

B8: CAT_Y358_R363C (peptide)
chain: GRLFAYPDTHC
inactive: SHP2 C-SH2 domain E139D 0.952 | [1] 1.11 | SHP2 N-SH2 domain L43F 0.856 | SHP2 N-SH2 domain T42A 0.927 | SHP2 N-SH2 domain T52S 1.06 | [2] 1.21

B9: CAT_Y386_Q387H (peptide)
chain: ARVANYHRDGP
inactive: SHP2 C-SH2 domain E139D 0.656 | [1] 0.588 | SHP2 N-SH2 domain L43F 0.608 | SHP2 N-SH2 domain T42A 0.567 | SHP2 N-SH2 domain T52S 0.606 | [2] 0.805

B10: CBFB_Y96 (peptide)
chain: EAGKVYLKAPM
inactive: SHP2 C-SH2 domain E139D 0.582 | [1] 0.783 | SHP2 N-SH2 domain L43F 0.867 | SHP2 N-SH2 domain T42A 0.748 | SHP2 N-SH2 domain T52S 0.809 | [2] 1.08

B11: CBFB_Y96_P100A (peptide)
chain: EAGKVYLKAAM
inactive: SHP2 C-SH2 domain E139D 0.635 | [1] 0.746 | SHP2 N-SH2 domain L43F 0.666 | SHP2 N-SH2 domain T42A 0.673 | SHP2 N-SH2 domain T52S 0.618 | [2] 0.819

B12: CBL_Y368_Q367P_YF (peptide)
chain: VTQEPYELFCE
inactive: SHP2 C-SH2 domain E139D 0.827 | [1] 0.98 | SHP2 N-SH2 domain L43F 0.957 | SHP2 N-SH2 domain T42A 0.675 | SHP2 N-SH2 domain T52S 0.671 | [2] 0.639

B13: CBL_Y368_Y371H (peptide)
chain: VTQEQYELHCE
inactive: SHP2 C-SH2 domain E139D 0.963 | [1] 0.821 | SHP2 N-SH2 domain L43F 0.55 | SHP2 N-SH2 domain T42A 0.639 | SHP2 N-SH2 domain T52S 0.631 | [2] 0.726

B14: CBL_Y368_YF (peptide)
chain: VTQEQYELFCE
inactive: SHP2 C-SH2 domain E139D 0.598 | [1] 1.04 | SHP2 N-SH2 domain L43F 0.665 | SHP2 N-SH2 domain T42A 0.693 | SHP2 N-SH2 domain T52S 0.651 | [2] 0.738

B15: CBL_Y371_Q367P (peptide)
chain: EPYELYCEMGS
inactive: SHP2 C-SH2 domain E139D 1.12 | [1] 1.01 | SHP2 N-SH2 domain L43F 0.866 | SHP2 N-SH2 domain T42A 0.735 | SHP2 N-SH2 domain T52S 0.685 | [2] 0.957

B16: CBL_Y371_Y371H (peptide)
chain: EQYELHCEMGS
inactive: SHP2 C-SH2 domain E139D 0.907 | [1] 0.639 | SHP2 N-SH2 domain L43F 0.791 | SHP2 N-SH2 domain T42A 0.685 | SHP2 N-SH2 domain T52S 0.712 | [2] 0.849

B17: CBL_Y371_Y371H_YF (peptide)
chain: EQFELHCEMGS
inactive: SHP2 C-SH2 domain E139D 1.04 | [1] 0.843 | SHP2 N-SH2 domain L43F 1 | SHP2 N-SH2 domain T42A 0.883 | SHP2 N-SH2 domain T52S 0.533 | [2] 1.15

B18: CBS_Y308_G307S (peptide)
chain: VEGISYDFIPT
inactive: SHP2 C-SH2 domain E139D 0.909 | [1] 1.19 | SHP2 N-SH2 domain L43F 0.943 | SHP2 N-SH2 domain T42A 0.815 | SHP2 N-SH2 domain T52S 0.892 | [2] 0.847

B19: CC2D2A_Y381_E376A (peptide)
chain: ALETLYKKAVK
inactive: SHP2 C-SH2 domain E139D 0.846 | [1] 0.545 | SHP2 N-SH2 domain L43F 0.724 | SHP2 N-SH2 domain T42A 0.559 | SHP2 N-SH2 domain T52S 0.529 | [2] 0.655

B20: CC2D2A_Y683 (peptide)
chain: KKRSVYLKVLF
inactive: SHP2 C-SH2 domain E139D 0.586 | [1] 0.591 | SHP2 N-SH2 domain L43F 0.656 | SHP2 N-SH2 domain T42A 0.929 | SHP2 N-SH2 domain T52S 0.716 | [2] 0.885

B21: CCDC137_Y125 (peptide)
chain: ESDGAYIHRMQ
inactive: SHP2 C-SH2 domain E139D 0.563 | [1] 0.575 | SHP2 N-SH2 domain L43F 0.473 | SHP2 N-SH2 domain T42A 0.628 | SHP2 N-SH2 domain T52S 0.567 | [2] 0.716

B22: CCDC151_Y542 (peptide)
chain: GRLPEYNTRIA
inactive: SHP2 C-SH2 domain E139D 0.832 | [1] 0.771 | SHP2 N-SH2 domain L43F 0.63 | SHP2 N-SH2 domain T42A 0.619 | SHP2 N-SH2 domain T52S 0.696 | [2] 0.763

B23: CCDC39_Y593 (peptide)
chain: RKQQLYTAMEE
inactive: SHP2 C-SH2 domain E139D 0.684 | [1] 0.779 | SHP2 N-SH2 domain L43F 0.704 | SHP2 N-SH2 domain T42A 0.741 | SHP2 N-SH2 domain T52S 0.666 | [2] 0.654

B24: CCDC42_Y149_YF (peptide)
chain: AKLKDYFIFNK
inactive: SHP2 C-SH2 domain E139D 1.69 | [1] 0.957 | SHP2 N-SH2 domain L43F 1.37 | SHP2 N-SH2 domain T42A 1.06 | SHP2 N-SH2 domain T52S 1.07 | [2] 1.18

B25: CCDC60_Y41 (peptide)
chain: MKSIKYMDKEI
inactive: SHP2 C-SH2 domain E139D 0.953 | [1] 1.08 | SHP2 N-SH2 domain L43F 0.639 | SHP2 N-SH2 domain T42A 0.666 | SHP2 N-SH2 domain T52S 1.24 | [2] 1.07

B26: CCDC60_Y41_I46V (peptide)
chain: MKSIKYMDKEV
inactive: SHP2 C-SH2 domain E139D 0.775 | [1] 0.807 | SHP2 N-SH2 domain L43F 0.732 | SHP2 N-SH2 domain T42A 0.532 | SHP2 N-SH2 domain T52S 0.649 | [2] 0.659

B27: CCDC93_Y209_R213C_YF (peptide)
chain: EFGRRYGFSCQ
inactive: SHP2 C-SH2 domain E139D 0.578 | [1] 0.628 | SHP2 N-SH2 domain L43F 0.675 | SHP2 N-SH2 domain T42A 0.682 | SHP2 N-SH2 domain T52S 0.571 | [2] 0.795

B28: CCDC93_Y209_YF (peptide)
chain: EFGRRYGFSRQ
inactive: SHP2 C-SH2 domain E139D 0.63 | [1] 0.308 | SHP2 N-SH2 domain L43F 0.327 | SHP2 N-SH2 domain T42A 0.49 | SHP2 N-SH2 domain T52S 0.326 | [2] 0.397

B29: CCNB1IP1_Y125_Y125C (peptide)
chain: QMEKICTQQIQ
inactive: SHP2 C-SH2 domain E139D 0.986 | [1] 1.06 | SHP2 N-SH2 domain L43F 1.06 | SHP2 N-SH2 domain T42A 0.895 | SHP2 N-SH2 domain T52S 0.966 | [2] 1.31

B30: CCPG1_Y569 (peptide)
chain: TVFSDYLHPQY
inactive: SHP2 C-SH2 domain E139D 1.01 | [1] 0.833 | SHP2 N-SH2 domain L43F 1 | SHP2 N-SH2 domain T42A 0.963 | SHP2 N-SH2 domain T52S 1 | [2] 1.35

B31: CCPG1_Y569_F566S (peptide)
chain: TVSSDYLHPQY
inactive: SHP2 C-SH2 domain E139D 0.727 | [1] 0.594 | SHP2 N-SH2 domain L43F 0.975 | SHP2 N-SH2 domain T42A 0.604 | SHP2 N-SH2 domain T52S 0.621 | [2] 0.635

B32: CCRL2_Y170_F167Y (peptide)
chain: PEYVVYKPQME
inactive: SHP2 C-SH2 domain E139D 1.27 | [1] 0.779 | SHP2 N-SH2 domain L43F 1.1 | SHP2 N-SH2 domain T42A 1.18 | SHP2 N-SH2 domain T52S 0.938 | [2] 1.02

B33: CCT6A_Y229 (peptide)
chain: RVEDAYILTCN
inactive: SHP2 C-SH2 domain E139D 0.993 | [1] 0.813 | SHP2 N-SH2 domain L43F 1.05 | SHP2 N-SH2 domain T42A 0.722 | SHP2 N-SH2 domain T52S 0.727 | [2] 0.6

B34: CCT6A_Y229_Y229C (peptide)
chain: RVEDACILTCN
inactive: SHP2 C-SH2 domain E139D 0.781 | [1] 0.896 | SHP2 N-SH2 domain L43F 0.904 | SHP2 N-SH2 domain T42A 0.877 | SHP2 N-SH2 domain T52S 0.892 | [2] 0.794

B35: CCT7_Y263 (peptide)
chain: HTVEDYQAIVD
inactive: SHP2 C-SH2 domain E139D 0.585 | [1] 0.776 | SHP2 N-SH2 domain L43F 0.791 | SHP2 N-SH2 domain T42A 0.694 | SHP2 N-SH2 domain T52S 0.7 | [2] 0.798

B36: CCT7_Y263_T259A (peptide)
chain: HAVEDYQAIVD
inactive: SHP2 C-SH2 domain E139D 0.618 | [1] 0.768 | SHP2 N-SH2 domain L43F 0.608 | SHP2 N-SH2 domain T42A 0.582 | SHP2 N-SH2 domain T52S 0.685 | [2] 0.87

B37: CD19_Y378_G373S (peptide)
chain: STAPSYGNPSS
inactive: SHP2 C-SH2 domain E139D 0.455 | [1] 0.576 | SHP2 N-SH2 domain L43F 0.448 | SHP2 N-SH2 domain T42A 0.546 | SHP2 N-SH2 domain T52S 0.569 | [2] 0.333
